Results on 120 sequences are retold here after the supplement of paper PMC10126150.

Values marked as one replicate rest on one cluster of the flow cell; about a third of the high ones do not repeat.

In the data set the test system is ATP. Kind of data set: switch fluorescence ratio, 500 uM ATP over buffer (Cy3 cluster intensity, sum of 5 cycles each) (fold (ratio)); higher = stronger signal-on switching upon ATP binding; sequences stand for … in TCGTCGGCAGCGTCAGATGTGTATAAGAGACAGTTTTTTTTTTTTTTTTTTTTTTTTT…TC. The following applies: aptamer strand: ATP DNA aptamer (quencher-CACCTGGGGGAGTATTGCGGAGGAAGG + anchor), 100 nM annealed; ATP concentration: 500 uM; one replicate. A digest of the protocol:
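Imaging in selection buffer was followed by imaging after 15 min with 500 uM ATP at 22 °C, for Cy3-labelled switching-strand clusters annealed to 100 nM quencher-labelled ATP aptamer on a modified Illumina MiSeq flow-cell. Five of these buffer/ATP cycles ran, separated by NaOH stripping and re-annealing. The fluorescence ratio per cluster is summed target-cycle over summed buffer-cycle Cy3 intensity, averaged per switch-domain sequence; clusters outside 100-1000 RFU were removed.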
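Note: ATP exposure 15 min at 22 °C before imaging.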

For CGTTATCGGC, the switch fluorescence ratio turned out to be 0.966.

Take CCTGGTTCCA: the switch fluorescence ratio was 0.981.

GAGGCATGTG: the switch fluorescence ratio came to 1.02.

Take CGGTGTAATG: the switch fluorescence ratio is 0.951.

Regarding CTGTGTTTCC, the switch fluorescence ratio is 1.04.

As to GTTAGACCTT, the switch fluorescence ratio stood at 1.17.

Regarding ATTCGTACGT, the switch fluorescence ratio worked out at 1.04.

For AGAAAAGAAG, the switch fluorescence ratio came to 1.03.

For AGGGAGTGTG, the switch fluorescence ratio was determined as 1.03.

GGTAGTTCAG: the switch fluorescence ratio was 0.981.

As for TGAGATCGGA, the switch fluorescence ratio turned out to be 1.14.

With TACAGAACTC, the switch fluorescence ratio came out at 1.07.

Consider TCAGAGCTCA, for which the switch fluorescence ratio was found to be 1.02.

CAGCGATCCA: the switch fluorescence ratio came to 1.03.

In the case of CTTAAAGATG, the switch fluorescence ratio turned out to be 0.995.

For the sequence AACAATGTTA, the switch fluorescence ratio amounted to 0.993.

For the sequence GAAAATCAAA, the switch fluorescence ratio stood at 0.935.

Regarding TTCGGCAACT, the switch fluorescence ratio came out at 1.05.

TGCCTGTACT: the switch fluorescence ratio was determined as 1.07.

With GGTGGGACTC, the switch fluorescence ratio turned out to be 1.03.

For the sequence GATACAACAT, the switch fluorescence ratio was 1.02.

Turning to ATTTCCGAAA, the switch fluorescence ratio is 1.1.

Take TATTGATGCT: the switch fluorescence ratio worked out at 1.01.

Consider ACTGTAATTG, for which the switch fluorescence ratio came out at 1.18.

As for CGGGGCTGTT, the switch fluorescence ratio was found to be 1.04.

With ACAGAAAGTC, the switch fluorescence ratio came out at 1.03.

Regarding AAGTGAATC, the switch fluorescence ratio came to 0.972.

Regarding TTGCAGGAAG, the switch fluorescence ratio turned out to be 0.98.

Consider CCGATTTCCA, for which the switch fluorescence ratio was found to be 1.01.

CGTGACGCGG: the switch fluorescence ratio was 0.977.

For the sequence GTTCGGCTTT, the switch fluorescence ratio came out at 1.04.

Consider TGTGCTTATC, for which the switch fluorescence ratio was determined as 1.02.

As to CGAGTTACCA, the switch fluorescence ratio came to 1.04.

As for TGGCAGTCAA, the switch fluorescence ratio is 0.976.

On to GCTAGGCAGA, for which the switch fluorescence ratio worked out at 1.02.

CTTCCAGACT: the switch fluorescence ratio is 1.12.

Turning to AGACGTTAAG, the switch fluorescence ratio came to 1.01.

With CGTGTCGGGC, the switch fluorescence ratio was determined as 0.987.

As to TGAGTGTAAG, the switch fluorescence ratio came out at 0.997.

Consider GCTGATTGCT, for which the switch fluorescence ratio was 0.997.

As for GCTCACAGAG, the switch fluorescence ratio stood at 1.02.

On to AGGGTGCCCC, for which the switch fluorescence ratio worked out at 1.37.

Regarding ACTAGTTGAT, the switch fluorescence ratio turned out to be 1.12.

For the sequence TTACTTGGGG, the switch fluorescence ratio was determined as 1.02.

CTGGCACGTA: the switch fluorescence ratio came to 1.07.

As to GGCTAGAGGC, the switch fluorescence ratio worked out at 1.01.

On to GAACATGAGA, for which the switch fluorescence ratio was 1.02.

Regarding TGTTTTATC, the switch fluorescence ratio was found to be 0.99.

Take TCAAAGGCAA: the switch fluorescence ratio was determined as 1.65.

Take AGGAGTGT: the switch fluorescence ratio stood at 1.

As to TGCTACCAT, the switch fluorescence ratio was 1.03.

Regarding AGCCTGTCTG, the switch fluorescence ratio was determined as 0.991.

AAGTGCACGT: the switch fluorescence ratio is 0.966.

Regarding CAGTGAGTGG, the switch fluorescence ratio was 0.977.

Regarding TATGTGTGTC, the switch fluorescence ratio stood at 0.938.

As to AGGGTCCTTA, the switch fluorescence ratio came to 0.964.

On to TGATCTAAAG, for which the switch fluorescence ratio was 1.03.

As for GATGATCAGT, the switch fluorescence ratio was found to be 1.

Regarding ATATTGTAAA, the switch fluorescence ratio is 0.991.

Take TCATGAACCT: the switch fluorescence ratio amounted to 1.88.

For GCTCGATTGT, the switch fluorescence ratio was 0.999.

On to TCTTTGTAGA, for which the switch fluorescence ratio is 1.06.

For GGTTACTAGT, the switch fluorescence ratio worked out at 0.974.

GGTGAGTGTT: the switch fluorescence ratio worked out at 0.938.

Take ACAGTTTTTC: the switch fluorescence ratio came to 0.949.

Regarding TGTGGTTATC, the switch fluorescence ratio is 1.

Consider GGACTCAAAC, for which the switch fluorescence ratio came out at 1.89.

Regarding CCTGCCTCTG, the switch fluorescence ratio amounted to 3.08.

In the case of CGCTCAAATC, the switch fluorescence ratio is 1.22.

Regarding TAGCTTTGTT, the switch fluorescence ratio came out at 1.01.

For TGGACGCGCG, the switch fluorescence ratio was 1.01.

In the case of GGACCACAAT, the switch fluorescence ratio worked out at 1.07.

For the sequence TCGGATTCTG, the switch fluorescence ratio was found to be 0.978.

TGTGACTAGG: the switch fluorescence ratio amounted to 0.999.

Take TTGGGAATTA: the switch fluorescence ratio is 0.98.

GGTCCTGCCG: the switch fluorescence ratio was 1.05.

With CATTGGATAT, the switch fluorescence ratio stood at 0.996.

As for AGAAAAACAG, the switch fluorescence ratio turned out to be 1.09.

With CATGGTTAAT, the switch fluorescence ratio was determined as 1.01.

As to TACACAAGT, the switch fluorescence ratio came to 1.1.

As to AGTGTGGTAT, the switch fluorescence ratio was determined as 0.985.

Consider CGCGGAGCTA, for which the switch fluorescence ratio was 1.11.

For the sequence AGGTAGCAA, the switch fluorescence ratio is 3.4.

Regarding AAACGCCCGA, the switch fluorescence ratio came to 1.17.

On to CCGATTACGT, for which the switch fluorescence ratio is 1.23.

For AGGGGAGCAC, the switch fluorescence ratio was found to be 1.03.

On to AATCCTAACA, for which the switch fluorescence ratio amounted to 1.05.

For the sequence AGGAACCAGG, the switch fluorescence ratio came to 1.65.

Take CAGGAAGGA: the switch fluorescence ratio is 1.02.

On to CTTTTCTTTA, for which the switch fluorescence ratio was determined as 1.02.

Consider AACAGCTTCT, for which the switch fluorescence ratio is 0.974.

For ACACGTGTTC, the switch fluorescence ratio was determined as 0.985.

Turning to GTGGTGTGAA, the switch fluorescence ratio was determined as 1.

As to AGACGTGAGT, the switch fluorescence ratio worked out at 0.937.

With TGAAATACCG, the switch fluorescence ratio was 1.05.

As for TTTTAAATTA, the switch fluorescence ratio stood at 0.991.

ACCTGCCTGA: the switch fluorescence ratio stood at 1.12.

On to TAGTGTGTGT, for which the switch fluorescence ratio turned out to be 1.03.

As for TGTGTTGGC, the switch fluorescence ratio worked out at 1.

Take TGCGACGCGA: the switch fluorescence ratio is 1.14.

Consider TCCGGACTTA, for which the switch fluorescence ratio amounted to 1.06.

Consider AGTCTGGGCC, for which the switch fluorescence ratio came to 0.998.

As to CTGGGAGGCG, the switch fluorescence ratio came to 0.967.

As to TGGGGTCCGA, the switch fluorescence ratio came to 0.99.

For GTCCAGCTGC, the switch fluorescence ratio is 1.08.

Regarding AGGAGGTTC, the switch fluorescence ratio worked out at 1.02.

With GATCATTTAT, the switch fluorescence ratio stood at 1.02.

For the sequence ACGTCAAACC, the switch fluorescence ratio was determined as 1.26.

In the case of CCTCGTTCTG, the switch fluorescence ratio was found to be 1.03.

As to ATACCCCCG, the switch fluorescence ratio was found to be 1.39.

For CGGTCACCCA, the switch fluorescence ratio worked out at 1.02.

In the case of AAACGCCCGC, the switch fluorescence ratio turned out to be 1.12.

Take GGCCGTTAGA: the switch fluorescence ratio amounted to 0.97.

On to AAACCAAGCT, for which the switch fluorescence ratio is 1.05.

For the sequence TTCACGACCT, the switch fluorescence ratio worked out at 1.34.

As to GAGTCGTGTC, the switch fluorescence ratio was found to be 1.01.

For GGTTGTAGGT, the switch fluorescence ratio stood at 1.06.

TTACTTAAAT: the switch fluorescence ratio is 1.08.

Take CTTGTTTGAG: the switch fluorescence ratio turned out to be 0.985.

Consider TTGGTGAATG, for which the switch fluorescence ratio was 1.02.
